Measured values as given in the supplement of paper PMC12217912.
The list shows a part of the results. Sequences were assembled here from the parent chain. Values near 0.05 are background.

B1: TEV protease; numbered along this chain (parent)
chain: MGESLFKGPRDYNPISSSICHLTNESDGHTTSLYGIGFGPFIITNKHLFRRNNGTLVVQSLHGVFKVKDTTTLQQHLVDGRDMIIIRMPKDFPPFPQKLKFREPQREERICLVTTNFQTKSMSSMVSDTSCTFPSGDGIFWKHWIQTKDGQCGSPLVSTRDGFIVGIHSASNFTNTNNYFTSVPKNFMELLTNQEAQQWVSGWRLNADSVLWGGHKVFMVKPEEPFQPVKEATQL

Variants of: B1
Test: raw area under fraction-flipped curve 0-4 h after induction (AUC4h, not background-subtracted), DNA-recorder readout of cleavage of the substrate (dimensionless); higher = more cleavage of the substrate by the protease variant
Details: temperature: 34 °C; time window: 0-4 h after rhamnose induction
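Also: Bxb1 expression induced with 0.2% (w/v) L-rhamnose at OD600 near 0.5, cultures sampled hourly, flipped fraction per protease–substrate barcode pair counted by paired-end Illumina sequencing.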

In the case of MGESLFKGPRDYNPISSSICHLTNESDGHTTSLYGIGFGPFIITNKHLFRRNNGTLVVQSLHGVFKVKDTTTLQQHLVDGRDMIIIRMPKDFPPFPQKLKFREPQREERICLVTTNFQTKSMSSMVSDTSCTFPSGDGIFWKHWIQTKDGQCGSPLVSTRDGFIVGIHSASNDTNTNNYFTSVPKNFMELLTNQEAQQWVSGWRLNADSVLWGGHKVFMVKPEEPFQPVKEATQL [F173D], the “area with substrate ENLYFQC” value is reported as 0.0744, the “area with substrate ENLYFQD” value is reported as 0.0672 and the “area with substrate ENLYFQE” value is reported as 0.0594. The “area with substrate ENLYFQF” value was 0.048, the “area with substrate ENLYFQG” value was 0.0744 and the “area with substrate ENLYFQI” value was 0.0574. The “area with substrate ENLYFQK” value was 0.0606, the “area with substrate ENLYFQL” value was 0.0566 and the “area with substrate ENLYFQM” value was 0.0683. The “area with substrate ENLYFQN” value was 0.0673, the “area with substrate ENLYFQP” value was 0.0513 and the “area with substrate ENLYFQR” value was 0.0613. For the same variant, the “area with substrate ENLYFQS” value was 0.0794, the “area with substrate ENLYFQT” value was 0.0649 and the “area with substrate ENLYFQV” value was 0.0691. The “area with substrate ENLYFQW” value was 0.0687 and the “area with substrate ENLYFQY” value was 0.0624.

In the case of MGESLFKGPRDYNPISSSICHLTNESDGHTTSLYGIGFGPFIITNKHLFRRNNGTLVVQSLHGVFKVKDTTTLQQHLVDGRDMIIIRMPKDFPPFPQKLKFREPQREERICLVTTNFQTKSMSSMVSDTSCTFPSGDGIFWKHWFQTKDGQCGSPLVSTRDGFIVGIHSASNFTNTNNYFTSVPKNFMELLTNQEAQQWVSGWRLNADSVLWGGHKVFMVKPEEPFQPVKEATQL [I145F], the “area with substrate ENLYFQC” value is reported as 0.0822, the “area with substrate ENLYFQD” value is reported as 0.116 and the “area with substrate ENLYFQL” value is reported as 0.102. For the same variant, the “area with substrate ENLYFQR” value was 0.0475, the “area with substrate ENLYFQS” value was 0.0931 and the “area with substrate ENLYFQW” value was 0.0767.

For MGESLFKGPRDYNPISSSICHLTNESDGHTTSLYGIGFGPFIITNKHLFRRNNGTLVVQSLHGVFKVKDTTTLQQHLVDGRDMIIIRMPKDFPPFPQKLKFREPQREERICLVTTNFQTKSMSSMVSDTSCTFPSGDGIFWKHWIQTKDGQCGSPLVSTRDGFIVGTHSASNFTNTNNYFTSVPKNFMELLTNQEAQQWVSGWRLNADSVLWGGHKVFMVKPEEPFQPVKEATQL [I167T], the “area with substrate ENLYFQC” value was 0.0848, the “area with substrate ENLYFQD” value was 0.0561 and the “area with substrate ENLYFQG” value was 0.086. The “area with substrate ENLYFQH” value was 0.0647, the “area with substrate ENLYFQI” value was 0.06 and the “area with substrate ENLYFQK” value was 0.0563. The “area with substrate ENLYFQL” value was 0.0585, the “area with substrate ENLYFQM” value was 0.0557 and the “area with substrate ENLYFQN” value was 0.0758. For the same variant, the “area with substrate ENLYFQP” value was 0.0623, the “area with substrate ENLYFQR” value was 0.0611 and the “area with substrate ENLYFQS” value was 0.0695. For the same variant, the “area with substrate ENLYFQT” value was 0.0573 and the “area with substrate ENLYFQV” value was 0.0536.

With MGESLFKGPRDYNPISSSICHLTNESDGHTTSLYGIGFGPFIITNKHLFRRNNGTLVVQSLHGVFKVKDTTTLQQHLVDGRDMIIIRMPKDFPPFPQKLKFREPQREERICLVTTNFQTKSMSSMVSDTSCTFPSGDGIFWKHWIQTKDGQCGSPLVSTRDGFIVRIHSASNFTNTNNYFTSVPKNFMELLTNQEAQQWVSGWRLNADSVLWGGHKVFMVKPEEPFQPVKEATQL [G166R] the “area with substrate ENLYFQC” value was 0.0428, the “area with substrate ENLYFQD” value was 0.0502 and the “area with substrate ENLYFQF” value was 0.0491. The “area with substrate ENLYFQG” value was 0.0458, the “area with substrate ENLYFQH” value was 0.0475 and the “area with substrate ENLYFQI” value was 0.0538. The “area with substrate ENLYFQK” value was 0.0445, the “area with substrate ENLYFQM” value was 0.0548 and the “area with substrate ENLYFQN” value was 0.0473. For the same variant, the “area with substrate ENLYFQR” value was 0.0386, the “area with substrate ENLYFQS” value was 0.0518 and the “area with substrate ENLYFQT” value was 0.0538. The “area with substrate ENLYFQV” value was 0.0465, the “area with substrate ENLYFQW” value was 0.043 and the “area with substrate ENLYFQY” value was 0.0373.

In the case of MGESLFKGPRDYNPISSSICHLTNESDGHTTSLYGIGFGPFIITNKHLFRRNNGTLVVQSLHGVFKVKDTTTLQQHLVDGRDMIIIRMPKDFPPFPQKLKFREPQREERICLVTTNFQTKSMSSMVSDTSCTFPSGDGIFWKHWIQTKDGQCGSPLVSTRDGFIVVIHSASNFTNTNNYFTSVPKNFMELLTNQEAQQWVSGWRLNADSVLWGGHKVFMVKPEEPFQPVKEATQL [G166V], the “area with substrate ENLYFQC” value is reported as 0.0491, the “area with substrate ENLYFQD” value is reported as 0.0611 and the “area with substrate ENLYFQF” value is reported as 0.0409. The “area with substrate ENLYFQH” value was 0.0546, the “area with substrate ENLYFQI” value was 0.0491 and the “area with substrate ENLYFQK” value was 0.0449. For the same variant, the “area with substrate ENLYFQL” value was 0.0462, the “area with substrate ENLYFQM” value was 0.045 and the “area with substrate ENLYFQN” value was 0.0472. The “area with substrate ENLYFQP” value was 0.055, the “area with substrate ENLYFQR” value was 0.0536 and the “area with substrate ENLYFQS” value was 0.0514. For the same variant, the “area with substrate ENLYFQT” value was 0.0582 and the “area with substrate ENLYFQW” value was 0.0555.

In the case of MGESLFKGPRDYNPISSSICHLTNESDGHTTSLYGIGFGPFIITNKHLFRRNNGTLVVQSLHGVFKVKDTTTLQQHLVDGRDMIIIRMPKDFPPFPQKLKFREPQREERICLVTTNFQTKSMSSMVSDTSCTFPSGDGIFWKHWIQEKDGQCGSPLVSTRDGFIVGIHSASNFTNTNNYFTSVPKNFMELLTNQEAQQWVSGWRLNADSVLWGGHKVFMVKPEEPFQPVKEATQL [T147E], the “area with substrate ENLYFQC” value is reported as 0.0549, the “area with substrate ENLYFQD” value is reported as 0.0718 and the “area with substrate ENLYFQE” value is reported as 0.0482. The “area with substrate ENLYFQG” value was 0.0576, the “area with substrate ENLYFQH” value was 0.0623 and the “area with substrate ENLYFQI” value was 0.0549. For the same variant, the “area with substrate ENLYFQK” value was 0.0551, the “area with substrate ENLYFQL” value was 0.0591 and the “area with substrate ENLYFQM” value was 0.0765. For the same variant, the “area with substrate ENLYFQP” value was 0.0516, the “area with substrate ENLYFQR” value was 0.0641 and the “area with substrate ENLYFQS” value was 0.0606. The “area with substrate ENLYFQT” value was 0.0566, the “area with substrate ENLYFQW” value was 0.0559 and the “area with substrate ENLYFQY” value was 0.0436.

In the case of MGESLFKGPRDYNPISSSICHLTNESDGHTTSLYGIGFGPFIITNKHLFRRNNGTLVVQSLHGVFKVKDTTTLQQHLVDGRDMIIIRMPKDFPPFPQKLKFREPQREERICLVTTNFQTKSMSSMVSDTSCTFPSGDGIFWKCWIQTKDGQCGSPLVSTRDGFIVGIHSASNFTNTNNYFTSVPKNFMELLTNQEAQQWVSGWRLNADSVLWGGHKVFMVKPEEPFQPVKEATQL [H143C], the “area with substrate ENLYFQC” value is reported as 0.092, the “area with substrate ENLYFQG” value is reported as 0.117 and the “area with substrate ENLYFQI” value is reported as 0.0504. The “area with substrate ENLYFQL” value was 0.0562, the “area with substrate ENLYFQM” value was 0.0781 and the “area with substrate ENLYFQN” value was 0.0705. The “area with substrate ENLYFQP” value was 0.0623, the “area with substrate ENLYFQQ” value was 0.0763 and the “area with substrate ENLYFQR” value was 0.0586. For the same variant, the “area with substrate ENLYFQS” value was 0.0869 and the “area with substrate ENLYFQT” value was 0.0423.

For MGESLFKGPRDYNPISSSICHLTNESDGHTTSLYGIGFGPFIITNKHLFRRNNGTLVVQSLHGVFKVKDTTTLQQHLVDGRDMIIIRMPKDFPPFPQKLKFREPQREERICLVTTNFQTKSMSSMVSDTSCTFPSGDGIFWKRWIQTKDGQCGSPLVSTRDGFIVGIHSASNFTNTNNYFTSVPKNFMELLTNQEAQQWVSGWRLNADSVLWGGHKVFMVKPEEPFQPVKEATQL [H143R], the “area with substrate ENLYFQC” value was 0.077, the “area with substrate ENLYFQD” value was 0.0616 and the “area with substrate ENLYFQG” value was 0.0572. The “area with substrate ENLYFQH” value was 0.0472, the “area with substrate ENLYFQK” value was 0.0563 and the “area with substrate ENLYFQL” value was 0.0538. The “area with substrate ENLYFQM” value was 0.0689, the “area with substrate ENLYFQN” value was 0.054 and the “area with substrate ENLYFQP” value was 0.0629. For the same variant, the “area with substrate ENLYFQQ” value was 0.076, the “area with substrate ENLYFQR” value was 0.0561 and the “area with substrate ENLYFQS” value was 0.0583. The “area with substrate ENLYFQT” value was 0.0591, the “area with substrate ENLYFQV” value was 0.0236 and the “area with substrate ENLYFQW” value was 0.0573. The “area with substrate ENLYFQY” value was 0.05.

For MGESLFKGPRDYNPISSSICHLTNESDGHTTSLYGIGFGPFIITNKHLFRRNNGTLVVQSLHGVFKVKDTTTLQQHLVDGRDMIIIRMPKDFPPFPQKLKFREPQREERICLVTTNFQTKSMSSMVSDTSCTFPSGDGIFMKHWIQTKDGQCGSPLVSTRDGFIVGIHSASNFTNTNNYFTSVPKNFMELLTNQEAQQWVSGWRLNADSVLWGGHKVFMVKPEEPFQPVKEATQL [W141M], the “area with substrate ENLYFQC” value was 0.0742, the “area with substrate ENLYFQF” value was 0.0406 and the “area with substrate ENLYFQG” value was 0.0684. The “area with substrate ENLYFQH” value was 0.0597, the “area with substrate ENLYFQI” value was 0.0561 and the “area with substrate ENLYFQK” value was 0.0622. The “area with substrate ENLYFQL” value was 0.055, the “area with substrate ENLYFQM” value was 0.0645 and the “area with substrate ENLYFQN” value was 0.0431. The “area with substrate ENLYFQR” value was 0.0803, the “area with substrate ENLYFQS” value was 0.0725 and the “area with substrate ENLYFQT” value was 0.0609. The “area with substrate ENLYFQV” value was 0.006, the “area with substrate ENLYFQW” value was 0.0605 and the “area with substrate ENLYFQY” value was 0.0563.
